Hit rate of the full screen: of about 310,000 compounds, about 2,200 (0.71%) showed an effect of 50% or more. Effects have a minus sign here. Some of the results follow.
Target: human ether-à-go-go-related gene (hERG) potassium channel (human, UniProt Q12809)
Assay: primary screen, population patch clamp on CHO cells stably expressing hERG

human ether-à-go-go-related gene (hERG) potassium channel, sequence (Q12809 whole entry, looked up): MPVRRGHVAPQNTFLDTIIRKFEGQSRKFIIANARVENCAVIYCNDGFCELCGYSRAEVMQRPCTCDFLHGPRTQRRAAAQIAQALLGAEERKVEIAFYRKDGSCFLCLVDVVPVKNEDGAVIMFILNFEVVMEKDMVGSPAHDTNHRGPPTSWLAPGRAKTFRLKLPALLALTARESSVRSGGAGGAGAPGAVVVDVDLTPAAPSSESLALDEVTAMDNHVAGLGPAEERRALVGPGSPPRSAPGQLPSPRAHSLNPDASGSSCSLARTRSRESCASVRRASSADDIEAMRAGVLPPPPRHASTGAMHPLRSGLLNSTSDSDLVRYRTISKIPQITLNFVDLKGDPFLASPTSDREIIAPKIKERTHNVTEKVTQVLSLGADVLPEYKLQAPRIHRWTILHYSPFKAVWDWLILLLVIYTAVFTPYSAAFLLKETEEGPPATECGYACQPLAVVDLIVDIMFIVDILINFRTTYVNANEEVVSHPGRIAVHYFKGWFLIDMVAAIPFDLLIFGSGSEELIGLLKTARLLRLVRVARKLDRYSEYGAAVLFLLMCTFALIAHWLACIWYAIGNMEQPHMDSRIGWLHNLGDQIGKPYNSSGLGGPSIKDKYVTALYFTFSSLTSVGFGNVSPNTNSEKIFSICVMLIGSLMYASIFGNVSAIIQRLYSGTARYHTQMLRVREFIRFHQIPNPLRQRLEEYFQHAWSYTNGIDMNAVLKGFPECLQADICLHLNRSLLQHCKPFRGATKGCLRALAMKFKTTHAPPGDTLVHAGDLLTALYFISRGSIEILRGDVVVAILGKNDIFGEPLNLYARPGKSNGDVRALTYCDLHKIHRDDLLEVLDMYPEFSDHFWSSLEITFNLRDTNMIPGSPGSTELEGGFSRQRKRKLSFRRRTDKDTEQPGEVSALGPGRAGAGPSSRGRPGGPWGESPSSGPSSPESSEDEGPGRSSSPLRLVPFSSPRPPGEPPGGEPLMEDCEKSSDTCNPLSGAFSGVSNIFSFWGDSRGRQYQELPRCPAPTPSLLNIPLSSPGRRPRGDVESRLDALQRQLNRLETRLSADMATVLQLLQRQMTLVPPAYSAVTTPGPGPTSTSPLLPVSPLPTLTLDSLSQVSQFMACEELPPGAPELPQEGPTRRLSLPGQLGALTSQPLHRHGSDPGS

SMILES	hERG current change (%, negative = inhibition) at 1uM [%]
CCCOC(c1ccccc1)(c1ccc(C(F)(F)F)cc1)C(Oc1nc(C)cc(C)n1)C(=O)O (stereo not shown)	17.2
CCCCc1c(C)nc2ccc(C)cc2c1SCCC(=O)O	0.904
Cl.N=c1sccn1CC(=O)NCCc1ccc(Cl)cc1	2.49
CCn1c(SCC(=O)Nc2ccc(N3CCOCC3)cc2)nnc1-c1ccncc1	27.3
CCc1ccc(-c2ccc3nnc(SC)n3n2)cc1	1.82
COc1ccc(S(=O)(=O)N2CC(O)CC2C(=O)Nc2cccnc2)cc1 (stereo not shown)	11
C/C(=C\c1ccc(C(=O)O)cc1)c1ccc2c(c1)C(C)(C)CCC2(C)C	15
Cc1ccc(CNC(=O)c2cc(C3CC3)nc3c2cnn3C(C)C)cc1	5.49
C/C(=N\O)C(C)(C)Nc1ccc(Br)cc1	16.5
COC(=O)COc1ccc2c(=O)c(-c3ccccc3OC)coc2c1	17.8
Cc1cc(C)c(S(N)(=O)=O)c(C)c1-n1cnnn1	8.32
O=C(O)CCCNC(=O)CCn1nnc2ccccc2c1=O	8.48
COc1ccc(Cl)cc1Nc1nc(C)cc(C)c1C(N)=O	13.8
COc1ccc(OCC(=O)Nc2c(C(=O)N(CCN(C)C)Cc3ccco3)oc3ccccc23)cc1	-82.2
Cc1occc1C(=O)NC(C)c1ccc2c(c1)OCO2 (stereo not shown)	-3.36
CC(NS(=O)(=O)c1ccc2c(c1)C(C)(C)C(=O)N2C)c1ccccc1 (stereo not shown)	0.803
CC(C)(C)C(=O)CSc1ncnc2c1cnn2-c1ccccc1	0.676
O=C(NCc1ccncc1)Nc1cccc(Cl)c1	-1.92
CCOCCCn1c(=S)[nH]c2cc(C(=O)NCCN(CC)CC)ccc2c1=O	-22.2
COC(=O)C(C)Sc1nnc(Cc2cc(=O)[nH]c(=O)[nH]2)n1-c1cccc(OC)c1 (stereo not shown)	9.69
CC(=O)c1cccc(N(C(=O)Cn2nnc3ccccc32)C(C(=O)NCC2CCCO2)c2ccc(N3CCOCC3)cc2)c1 (stereo not shown)	8.15
CC(O)(CC(=O)O)CC(=O)O	17.5
CC(=O)c1ccc(NS(=O)(=O)c2cc3c(cc2C)N(C(C)=O)CCO3)cc1	17.5

SMILES	hERG current change (%, negative = inhibition) at 1uM [%]
COc1ccc(C(=O)COC(=O)c2ccccc2NS(=O)(=O)c2ccc(O)c([N+](=O)[O-])c2)cc1	6.58
O=C(Nc1ccccc1)OC1CCC2CC1CCC2OC(=O)Nc1ccccc1 (stereo not shown)	3.1
Oc1c(Cl)cc(Cl)cc1C=Nc1ccc2c(c1)OCCO2	16
Nc1cccc(Nc2ccccc2)c1	16.3
COc1ccc(NC(=O)C2(c3ccc(NC(=O)c4ccc(C)cc4)cc3)CCCC2)cc1	9.7
CC(=O)N1c2ccc(S(=O)(=O)N3CCC(C(=O)N4CCC(C)CC4)CC3)cc2CC1C (stereo not shown)	11.9
Cn1c(N=Nc2ccccc2)nc2ccccc21	9.02
Cc1ccc(C)c(OCCCN2CCNCC2)c1.Cl	21
Cc1cc(=O)c2ccc3ccccc3c2[nH]1	9.29
COn1c(-c2ccc(C)cc2)nc2ncccc21	16.5
O=C(COC(=O)c1cncc(Br)c1)Nc1nnc(-c2ccccc2)o1	11.3
CC(C)(C)OC(=O)N1CCN(C(=O)[C@H](Cc2ccc(O)cc2)n2cc(CCO)nn2)CC1	12.7
Cc1ccc(NC(=O)C2CCCN(S(=O)(=O)c3ccc4[nH]c(=O)ccc4c3)C2)nc1 (stereo not shown)	6.21
COc1ccc(C2CC(c3ccccc3)n3nnnc3N2)cc1 (stereo not shown)	15.1
Cc1ccc(Cn2c(=N)n(CC(O)COc3ccccc3)c3ccccc32)cc1.Cl (stereo not shown)	-36.1
CCN(Cc1nc2ccccc2c(=O)[nH]1)C(=O)c1cccc(S(=O)(=O)N2CCc3ccccc32)c1	3.53
CNc1nc(N)c([N+](=O)[O-])c(Nc2ccccc2OC)n1	14.1
Oc1c(Br)cc(Br)cc1Oc1ccc(Br)cc1Br	12.6
CCOC(=O)c1c(NC(=S)Nc2ccccc2C)sc2c1CCC2	12.5
COc1ccc(/C=N\N=C(N)N)cc1.O=[N+]([O-])O	7.04
COC(=O)c1cc(NC(=O)CSc2nnc(N)s2)ccc1Cl	13.6
Cc1cc(C)cc(OCC(O)CN2CC(C)OC(C)C2)c1.Cl (stereo not shown)	8.71
CC1(C)Cc2c(sc(NC(=O)C(=O)N3CCN(CCO)CC3)c2C(N)=O)CO1	11.3
